According to PubChem BioAssay AID686979 (National Center for Advancing Translational Sciences (NCATS), 2013):
Where “and” joins values, the source holds several entries; their conditions need not be identical. Equal entries are not always repeated. Out of some 420,000 compounds screened, about 50,000 (12%) were called active. This list was built around the results that the source calls inconclusive (neither active nor inactive); the mix of calls is not that of the screen. The call rests on the fitted dose curve; in most records, active means well fitted inhibition curve with a large enough effect; inconclusive means small, poorly fitted or top-dose-only effect; inactive means flat fitted curve, though single readings scatter. Potencies of inconclusive entries are left out as doubtful fits. Where a structure was tested more than once in an assay, its records may differ in their call.

Test: qHTS for Inhibitors of human tyrosyl-DNA phosphodiesterase 1 (TDP1): qHTS in cells in presence of CPT; further: nearly all actives have a fitted effect of over 55% in size
Conditions: chicken DT40 Tdp1-/-;hTDP1 cells + 20 nM CPT, ATP luminescence, 48 h; activity change, negative = growth inhibition: at 46.2 µM (top of the series)
Method in brief: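 Chicken DT40 Tdp1-/- cells stably complemented with human TDP1 were seeded at 400 cells/well in medium containing 20 nM camptothecin, exposed to pin-transferred compounds, and grown at 37 °C for at least 48 hr. Viability was read as ATP luminescence.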
On the % scale 0 is the no-effect control and ±100 the full control effect; potency means the concentration at half of the fitted maximal effect; tags describe the fitted curve by direction and shape.

| Compound | Potency | activity change, negative = growth inhibition |
| --- | --- | --- |
| O=C(NCc1ccccc1)C1C(c2ccc3c(c2)OCO3)=Nc2ccccc2N1C(=O)c1cccc(C(F)(F)F)c1 (stereo unspecified) | active: 16.4 µM |  |
| Cc1ccc(C)c(S(=O)(=O)Nc2ccc3sc(C)nc3c2)c1 | inconclusive [inhibitor, partial curve] |  |
| Cn1c(=O)n(C)c2cc(S(=O)(=O)N3CCCc4ccccc43)ccc21 | inconclusive [inhibitor, single point] |  |
| CCCCCCCc1nc2sc3c(c2c(=O)n1N)CC(C)(C)OC3 | inconclusive [inhibitor, partial curve] |  |
| Cc1ccc(C)c(N2CCN(C(=O)c3c4c(nc5ccccc35)C(=O)N(C3CCCCC3)C4)CC2)c1 | active: 16.4 µM |  |
| COc1ccc(NC(=O)c2sccc2SCc2cccc(C(F)(F)F)c2)cc1 | inconclusive [inhibitor, single point] |  |
| CC(C)CC1NC(=O)c2cc3ccccc3cc2-n2c1nc1ccc(Cl)cc1c2=O (stereo unspecified) | inconclusive [inhibitor, single point] |  |
| COc1ccc(-c2nc(CNS(=O)(=O)c3ccc(F)cc3)cs2)cc1 | inconclusive [inhibitor, single point] |  |
| COc1ccccc1N1CCN(C(=O)c2c3c(nc4ccccc24)C(=O)N(C2CCCCC2)C3)CC1 | active: 13 µM |  |
| COc1cc(/C=C/c2ccnc3ccccc23)cc(OC)c1OC | active: 11.2 µM |  |
| CCCCn1c(N)c(N(CCC(C)C)C(=O)c2oc3ccc(OCC)cc3c2C)c(=O)[nH]c1=O | inconclusive [inhibitor, single point] |  |
| O=C(CN1CCN(S(=O)(=O)c2ccccc2F)CC1)NCC1(N2CCOCC2)CCCCC1 | inconclusive [inhibitor, single point] |  |
| O=C(Nc1ccccc1N1CCN(c2ccccc2)CC1)C12CC3CC(CC(C3)C1)C2 | inconclusive [inhibitor, single point] |  |
| CC(C)(CNC(=O)c1cc2ccccc2o1)N1CCOCC1 |  | inactive: -2.29% |
| CC(CN1CCC(n2nccc2NC(=O)c2ccccc2Cl)CC1)c1ccccc1 (stereo unspecified) | inconclusive [inhibitor, single point] |  |
| CC(=O)Nc1cc(-c2ccc(N3CCN(C)CC3)cc2)cn2c(-c3ccccc3)cnc12 | active: 20.6 µM |  |
| CCCOc1cccc(C(=O)Nc2ccc(-c3nc4ccccc4o3)cc2)c1 | inconclusive [inhibitor, single point] |  |
| COc1ccc(NC(=O)CS(=O)(=O)c2ccccc2)cc1 |  | inactive: 31.2% |
| O=c1nc2c(-c3cccc(Br)c3)n[nH]n2c2ccccc12 | inconclusive [inhibitor, single point] |  |
| CCN(CC)S(=O)(=O)c1ccc(S(=O)(=O)NCC2CCCO2)cc1 (stereo unspecified) |  | inactive: -5.55% |
| COc1ccc(C2CC(c3ccccc3)=NN2C(=O)CSc2ncn[nH]2)cc1 (stereo unspecified) | inconclusive [inhibitor, single point] |  |
| Cn1cccc1-c1cc(C(=O)N/N=C/c2cccc(O)c2)[nH]n1 | inconclusive [inhibitor, single point] |  |
| O=C(N/N=C/c1ccccc1O)c1ccncc1 | inactive and active: 4.61 µM |  |
| CCC(C)NC(=O)c1sc2nc(C)c(C(=O)Nc3ccc(Cl)cc3)c(-c3ccc(Br)cc3)c2c1N (stereo unspecified) | inconclusive [inhibitor, single point] |  |

| Compound | Potency | activity change, negative = growth inhibition |
| --- | --- | --- |
| CC(=O)c1ccc(NC(=S)NCCc2ccc(S(N)(=O)=O)cc2)cc1 |  | inactive: -26.1% |
| CCCc1ccc(C(=O)CN2C(=O)C(=O)N(C3CCCC3)C2=O)cc1 |  | inactive: -14.2% |
| CC(C)(C)N(NC(=O)Nc1ccc(Cl)c(Cl)c1)C(=O)c1ccccc1 | active: 18.4 µM |  |
| COc1ccccc1/C=C1\Cc2ccccc2C1=O | inconclusive [inhibitor, single point] |  |
| Cn1c(=O)[nH]c(=O)c2c1nc1n2CC(O)CN1c1ccccc1 (stereo unspecified) |  | inactive: 13.2% |
| O=C(NC1CCCCC1)C(c1ccccc1F)n1c(=O)c(-c2cc3ccccc3[nH]2)nc2ccccc21 (stereo unspecified) | inconclusive [inhibitor, single point] |  |
| N#CC1(NC(=O)COC(=O)c2cccc(-n3cnnn3)c2)CCCCC1 |  | inactive: -1.82% |
| CNS(=O)(=O)c1ccc(Oc2ccc(S(=O)(=O)NC)cc2)cc1 | active: 14.6 µM |  |
| Cc1cc2c(cc1C)NC1=C(N2)OC(c2cccc(O)c2)C1=O (stereo unspecified) | inconclusive [inhibitor, single point] |  |
| Cc1cccc(C)c1NC(=O)C1(C)CCC(=O)N1CCOc1ccccc1 (stereo unspecified) |  | inactive: -11.3% |
| CC1Cc2c([nH]c3ccccc23)C(=O)N1 (stereo unspecified) |  | inactive: -8.48% |
| CCc1nc2c(OCc3ccc(S(C)(=O)=O)cc3)cccn2c1N(C)C(=O)c1ccccc1F |  | inactive: -29.2% |
| O=C(NCCc1ccccc1)c1c[nH]c2ccc(S(=O)(=O)Nc3ccccc3F)cc2c1=O |  | inactive: -19% |
| CCOC(=O)N1CCC(NC(=O)C2CCN(Cc3nc(-c4ccc(CC)cc4)oc3C)CC2)CC1 | inconclusive [inhibitor, partial curve] |  |
| N#CCCN1CCCc2cc(N=Nc3ccc(C(F)(F)F)cc3)ccc21 | inconclusive [inhibitor, partial curve, poor fit] |  |
| Oc1cccc(C(=S)N2CCCCC2)c1 | inconclusive [inhibitor, single point] |  |
| CC1CCC2C(=O)N(c3ccc(NC4CCN(Cc5ccccc5)CC4)c([N+](=O)[O-])c3)C(=O)C2C1 (stereo unspecified) | inconclusive [inhibitor, single point] |  |
| NC(=O)COC(=O)c1ccc2noc(-c3ccccc3)c2c1 |  | inactive: 1.54% |
| O=C(c1ccc(S(=O)(=O)Nc2ccccc2)cc1)N1CCCCCCC1 | inconclusive [inhibitor, partial curve] |  |
| C=CCC[C@@H](Cc1ccc(F)cc1)C(=O)OC[C@@H](C)NC(=O)[C@@H](CC=C)CC(=O)N[C@H](CO)Cc1ccccc1 | active: 14.6 µM |  |
| COc1ccccc1CN(C)C(=O)C(NC(=O)Cc1cccc2ccccc12)C(C)C (stereo unspecified) | inconclusive [inhibitor, partial curve] |  |
| O=C(Nc1ccc(C2SCCS2)cc1)c1ccccc1 |  | inactive: -5.54% |
| COc1ccc(NC(=O)Nc2nnc(N(C)C3CCCCC3)s2)c(OC)c1 | inconclusive [inhibitor, single point] |  |
| COc1ccc(CC(N)c2csc(NC(=O)c3cccs3)n2)cc1 (stereo unspecified) | active: 18.4 µM |  |

| Compound | Potency | activity change, negative = growth inhibition |
| --- | --- | --- |
| COc1ccc(N=C(C)C2C(=O)c3ccccc3C2=O)cc1 | inconclusive [inhibitor, single point] |  |
| O=C(Cn1cnc2c(NCc3ccccc3)ncnc21)NCc1ccccn1 |  | inactive: -6.11% |
| CC(C)(C)NC(=O)COC(=O)c1ccccc1Oc1ccccc1 |  | inactive: -27.4% |
| COC(=O)CSc1nnc(-c2ccco2)n1-c1ccc(C)cc1 |  | inactive: 0.0261% |
| CCC(=O)OCC(=O)N=c1sccn1Cc1ccccc1Cl |  | inactive: -1.72% |
| CCOc1ccc2oc(C(=O)NC(C)(C)CC)c(C)c2c1 | inconclusive [inhibitor, single point] |  |
| CCCOc1ccccc1C(=O)N(Cc1ccco1)C1CCS(=O)(=O)C1 (stereo unspecified) | inconclusive [inhibitor, single point] |  |
| COc1ccc(NC(=O)Cc2c(SC)c3ccccc3n2Cc2ccccc2)cc1 | inconclusive [inhibitor, partial curve] |  |
| CCOc1cc(/C=C2\N=C3CCCCCN3C2=O)ccc1O | inconclusive [inhibitor, partial curve] |  |
| CCOC(=O)c1sc(NC(=O)COc2ccccc2Cl)c(C(=O)OCC)c1C |  | inactive: -9.03% |
| CC1CCN(C(=O)c2cc(-c3ccc(Cl)cc3)on2)CC1 | inconclusive [inhibitor, partial curve, poor fit] |  |
| C[C@@]12C(=O)Nc3cc(F)c(F)cc3C(=O)N1[C@H]1c3cc(Cl)ccc3OC[C@@H]1[C@@H]2c1ccccc1 | inconclusive [inhibitor, single point] |  |
| C[C@@H]1CN([C@H](C)CO)C(=O)c2cccc(NC(=O)Nc3ccc(F)cc3)c2O[C@H]1CN(C)C(=O)Nc1ccc(C(F)(F)F)cc1 | inconclusive [inhibitor, single point] |  |
| COc1ccccc1OCc1ccc(C(=O)N2CCN(C(=O)c3ccco3)CC2)cc1 |  | inactive: -4.8% |
| CCOC(=O)N1CCC(NC(=O)c2cc(C(=O)Nc3cccc(OC)c3)ccc2CO)CC1 |  | inconclusive: -30.4% [inhibitor] |
| CCN1CCN(CCCNC(=O)c2cc3c(=O)oc4ccc(C)cc4c3s2)CC1 | inconclusive [inhibitor, single point] |  |
| CC1CCc2sc(C(=O)NC3CCN(Cc4ccccc4)CC3)cc2C1 (stereo unspecified) | active: 20.6 µM |  |
| COc1ccc(-c2c(C(F)(F)F)nn(C)c2NC(=O)CSCC(=O)O)cc1 |  | inactive: 12.3% |
| Oc1c(Br)cc(Br)cc1/C=N/N1CCN(Cc2ccccc2)CC1 | inconclusive [inhibitor, single point] |  |
| Cc1ccccc1NC(=O)CSc1nc2c(oc3ccccc32)c(=O)n1-c1ccccc1F | inconclusive [inhibitor, single point] |  |
| COc1ccccc1NC(=O)Nc1nc(CC(=O)Nc2cccc(F)c2)cs1 | inconclusive [inhibitor, single point] |  |
| CCOc1cc(C(=O)NCCCNC(=O)c2cc(OCC)c(OCC)c(OCC)c2)cc(OCC)c1OCC |  | inactive: -25.4% |
| O=C1NC(Cc2c[nH]c3ccccc23)C(=O)N1Cc1ccc(CN2C(=O)NC(Cc3c[nH]c4ccccc34)C2=O)cc1 (stereo unspecified) | inconclusive [inhibitor, single point] |  |
